Data on 66 molecules can be found in article PMC6919601, “Identification of Plasmodium dipeptidyl aminopeptidase allosteric inhibitors by high throughput screening” (PLoS ONE, 2019).

Each structure is given as a SMILES string. Hit rate of the full screen: of about 110,000 compounds, about 230 (0.21%) showed an effect of 50% or more. The list shows a part of the results.
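Also: 30 min substrate incubation versus DMSO and 10 µM JCP410 controls.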

DPAP1, sequence (Q8IIJ9 whole entry, looked up): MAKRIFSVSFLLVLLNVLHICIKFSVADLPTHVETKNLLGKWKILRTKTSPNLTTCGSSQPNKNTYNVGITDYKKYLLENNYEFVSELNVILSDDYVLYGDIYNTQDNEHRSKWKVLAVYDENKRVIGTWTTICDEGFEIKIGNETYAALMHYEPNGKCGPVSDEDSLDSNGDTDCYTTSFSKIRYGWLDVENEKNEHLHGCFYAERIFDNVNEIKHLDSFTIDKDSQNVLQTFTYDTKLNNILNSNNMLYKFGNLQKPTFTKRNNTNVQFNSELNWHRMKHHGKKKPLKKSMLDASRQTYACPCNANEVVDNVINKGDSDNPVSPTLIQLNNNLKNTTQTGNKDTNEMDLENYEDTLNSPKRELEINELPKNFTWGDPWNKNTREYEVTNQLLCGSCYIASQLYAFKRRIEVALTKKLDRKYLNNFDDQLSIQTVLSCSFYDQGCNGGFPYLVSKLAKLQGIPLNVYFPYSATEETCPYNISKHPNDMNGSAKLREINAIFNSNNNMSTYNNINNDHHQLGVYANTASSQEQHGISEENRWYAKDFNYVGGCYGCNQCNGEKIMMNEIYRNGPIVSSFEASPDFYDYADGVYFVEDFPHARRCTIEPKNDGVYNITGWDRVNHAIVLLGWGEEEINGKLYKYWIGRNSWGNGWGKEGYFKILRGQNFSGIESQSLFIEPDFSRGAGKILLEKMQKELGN

The assay has as its target DPAP1 (Plasmodium falciparum, UniProt Q8IIJ9). As to the kind of experiment: primary screen, percent inhibition; read by cleavage of a fluorogenic dipeptide substrate; higher = more effect of the substance. Also noted: species or system P. falciparum D10 trophozoite lysates; single well.
For `Cc1nc(C)c2c(=O)n(-c3ccccc3)c(=O)[nH]c2n1`, the “% Inhibition @ 10 uM” value is on record as -3.66%.
As for `COC(=O)c1ccccc1NC(=O)CCC(=O)O`, the figure is 0.774%; as for `c1cc(CNC2CCCCC2)ccn1`, 1.84%; as for `FC(F)(F)c1ccc(-c2nnc3ccc4ccccc4n23)cc1`, 2.05%.
As for `Cc1ccc2cc3cc(C(=O)N(C)Cc4ccccc4)sc3nc2c1`, the figure is 0.402%; as for `O=C(NC1CCCCCCC1)NC1CCCCC1`, -5.92%; as for `O=C(O)C1CCCN(C(=O)c2ccc(-n3ccc4ccccc43)s2)C1` (stereo not drawn), 3.24%.
On to `CC(C)c1ccccc1OCC(=O)Nc1nonc1NC(=O)COc1ccccc1C(C)C`, for which the “% Inhibition @ 10 uM” value is -1.82%.
Turning to `CC(=O)c1c(O)cc(C)o/c1=N\c1ccc2c(c1)OCO2`, the “% Inhibition @ 10 uM” value was -4.41%.
To `COc1ccc(-c2cc(C(=O)NCc3ccncc3)c3ccccc3n2)c(OC)c1` belongs -2.32%; to `CCCCCCCCC1CC1(C(=O)O)C(=O)O` (stereo not drawn), -2.51%; to `Cc1nn(CC(=O)NCCC(C)C)c(=O)c2cc3cc(F)ccc3n12`, -0.192%.
As for `CCC1(C)Cc2c(sc3nnn(CC(=O)c4ccc(Cl)cc4)c(=O)c23)CO1` (stereo not drawn), the figure is 1.32%.
As for `O=C(Cn1ccc2ccccc2c1=O)Nc1nc2ccccc2s1`, the figure is -4.23%; as for `CN1CCC(NCc2cccc(Cl)c2)CC1`, 0.472%; as for `Cc1ccc(N/C=C2/C(=O)NC(=O)N(c3ccccc3)C2=O)cc1CN1C(=O)c2ccccc2C1=O`, 4%.
In the case of `O=C(C1CC1)N1CCN(c2cccc(Cl)c2)CC1`, the “% Inhibition @ 10 uM” value worked out at 1.88%.
As for `CC(C)N(Cc1nc(-c2ccccc2)no1)C(=O)CC(C)(C)C`, the figure is -6.89%.
As to `CC(C)(C)c1ccc(S(=O)(=O)Nc2cccc(C(F)(F)F)c2)cc1`, the “% Inhibition @ 10 uM” value was -2.03%.
For `CCCSc1nnc2c(n1)OC(c1cccc(C)n1)Nc1ccccc1-2` (stereo not drawn), the “% Inhibition @ 10 uM” value is reported as 4.88%.
As to `Cc1ccc2c(c1)-c1c(cnn1CC(=O)Nc1cccnc1Cl)CO2`, the “% Inhibition @ 10 uM” value is -4.34%.
As to `CC(C)(C)C1CC(O)C(C(C)(C)C)CC1=O` (stereo not drawn), the “% Inhibition @ 10 uM” value came to 3.92%.
To `NC(=O)c1ccc(-n2nnnc2SCc2ccc(C(=O)O)cc2)cc1` belongs 3.05%; to `Cc1cc(NS(=O)(=O)c2ccc(NC(=O)c3sc4ccccc4c3Cl)cc2)no1`, -8.97%; to `OC(C#CCN1CCOCC1)c1ccccc1` (stereo not drawn), -2%.
To `O=C(COCc1cc(-c2ccc(F)cc2)on1)NCc1ccc2c(c1)OCO2` belongs -6.43%.
To `Fc1ccc(CSc2nnnn2-c2ccc3c(c2)OCO3)cc1` belongs 4.66%; to `COc1cc(/C=C2/NC(=O)N(CC(=O)Nc3cccc(C)c3)C2=O)ccc1OC(C)C`, 5.03%.
As to `CCOC(=O)C1=C(CN2CCN(C(=O)OCC)CC2)NC(=O)NC1c1cccs1` (stereo not drawn), the “% Inhibition @ 10 uM” value is listed as -3.36%.
`CC1=NNC(=O)C1C(c1ccc(Br)cc1)C(C#N)C#N` (stereo not drawn): the “% Inhibition @ 10 uM” value was -2.51%.
To `COc1ccccc1CCNCc1c(C(=O)O)c(C)n(Cc2cccc(Cl)c2)c1C` belongs -0.23%; to `N#CC1=C(N)Oc2cc(O)ccc2C1c1ccc(C(F)(F)F)cc1` (stereo not drawn), -2.81%; to `c1ccc2c(c1)nc(-c1cscn1)n2CCCCc1nn[nH]n1`, 1.72%.
As for `CC(CCc1ccco1)N(C)S(=O)(=O)c1ccc(-c2cc(C(F)(F)F)no2)s1` (stereo not drawn), the figure is -1.77%.
Consider `c1ccc(-c2cc(-c3ccccc3)nc(-n3cccn3)n2)cc1`, for which the “% Inhibition @ 10 uM” value was 0.708%.
To `COCCCn1c(-c2ccc(Br)cc2)cn2c3c(=O)n(C)c(=O)n(C)c3nc12` belongs 4.05%; to `OC1CCN(Cc2ccc(Br)cc2)CC1`, 1.28%.
Turning to `Cc1cccc(C2=N/C(=C\c3sccc3C)C(=O)O2)c1`, the “% Inhibition @ 10 uM” value worked out at 2.92%.
For `CCOc1ccc2nc(N3CCC(C(=O)N4CCC(Cc5ccccc5)CC4)CC3)sc2c1`, the “% Inhibition @ 10 uM” value is on record as -1.58%.
As for `CCn1cc(Br)c(C(=O)Nc2c(C)cc(C)cc2C)n1`, the figure is -4.21%; as for `COc1ccccc1CNC(=O)CCCn1nc(C)n2c(cc3sccc32)c1=O`, 9.33%.
Turning to `CCOc1ccc(NC(=O)C2=C(C)NC(=O)NC2c2cccc(OC)c2)cc1` (stereo not drawn), the “% Inhibition @ 10 uM” value was found to be 3.44%.
To `Cc1ccc(C(=O)N(Cc2ccccc2)C(C)C)cc1` belongs 0.526%; to `COc1cccc(-c2n[nH]c(O)n2)c1`, 2.46%.
As for `CCc1ccc(/C=C2/C(=N)N3C(=NC2=O)SN=C3S(C)(=O)=O)cc1`, the figure is -3.39%; as for `Clc1ccc(-c2noc(COc3cccc4ccccc34)n2)cc1`, -1.6%; as for `CC1CC(NC(=O)C2C3CCC(C3)C2C(=O)O)CC(C)(C)C1` (stereo not drawn), 2.76%.
Regarding `CCCCOc1ccc(C(=O)NCc2cn3c(C)csc3n2)cc1`, the “% Inhibition @ 10 uM” value is recorded as -0.72%.
As for `N#Cc1ccc(NC(=O)c2ccc(-c3ccccc3)cc2)cc1`, the figure is -4.21%; as for `COc1ccc(C2=Cc3cc(C)c(C#N)c(=O)n3C2)cc1`, -4.35%; as for `Fc1ccc(Cn2nnc3ccccc32)cc1`, -6.78%.
For `CC(Cc1ccccc1F)N1CCN(C/C=C/c2ccccc2)CC1` (stereo not drawn), the “% Inhibition @ 10 uM” value is -7.17%.
To `CCOc1ccc(-c2cnc(NCc3c(F)cccc3Cl)n2C)cc1` belongs -4.78%; to `O=S(=O)(NC(c1ccccc1)c1ccccc1)c1ccc(Cl)cc1`, -0.856%; to `CCN1C(=O)CC(c2ccc(OC(C)C)cc2)C1=O` (stereo not drawn), 5.61%.
For the molecule `O=C(CCC(=O)n1ncc2ccc(Cl)cc21)NCc1ccccc1Cl`, the “% Inhibition @ 10 uM” value worked out at 0.596%.
As for `CCCC(C(=O)NCc1ccccc1Cl)N1Cc2ccccc2C1=O` (stereo not drawn), the “% Inhibition @ 10 uM” value amounted to 1.34%.
As for `CC(NC(=O)/C=C/c1ccccc1)c1ccccc1` (stereo not drawn), the figure is 3.8%.
As for `O=C(Nc1ccc(-c2ccc([N+](=O)[O-])cc2)cc1)c1ccco1`, the figure is 5.29%; as for `CC1=C(C(=O)OCc2ccccc2)C(c2ccc(F)cc2)C(C#N)=C(N)O1` (stereo not drawn), 2.54%; as for `COC(=O)C1=C(C(=O)OC)C2(OC1c1ccccc1C)C(=O)c1ccccc1C2=O` (stereo not drawn), -5.51%.
To `CCC1CCCCN1C(=O)Cn1c(C(=O)OC)cc2sccc21` (stereo not drawn) belongs -6.59%; to `Cc1nc2nc(SCC(=O)NCc3ccc(F)cc3)nn2c(C)c1Cc1ccccc1`, 0.121%.
In the case of `COc1ccc(-c2coc3cc(OC)ccc3c2=O)c(O)c1`, the “% Inhibition @ 10 uM” value worked out at 62.1%.
With `CCN1C/C(=C\c2ccsc2)C(=O)/C(=C/c2ccsc2)C1`, the “% Inhibition @ 10 uM” value worked out at 0.189%.
Consider `CCOC(=O)N1CCC(/N=c2\c(O)c(O)\c2=N/C2CCN(Cc3ccccc3)CC2)CC1`, for which the “% Inhibition @ 10 uM” value is recorded as -5.05%.
